From PubChem BioAssay AID504332 (National Center for Advancing Translational Sciences (NCATS), 2011)
In all, about 350,000 compounds went through this assay and about 31,000 (8.9%) were called active. This list was built around the results that the source calls inconclusive (neither active nor inactive); the mix of calls is not that of the screen. The call rests on the fitted dose curve; in most records, active means well fitted inhibition curve with a large enough effect; inconclusive means small, poorly fitted or top-dose-only effect; inactive means no such curve, though single readings can be large or run the other way. Potencies of inconclusive entries are doubtful fits and often do not repeat.

Biological target: Histone-lysine N-methyltransferase EHMT2 (Homo sapiens) (UniProt Q96KQ7)
Chain of UniProt Q96KQ7 (Q96KQ7 whole entry, looked up): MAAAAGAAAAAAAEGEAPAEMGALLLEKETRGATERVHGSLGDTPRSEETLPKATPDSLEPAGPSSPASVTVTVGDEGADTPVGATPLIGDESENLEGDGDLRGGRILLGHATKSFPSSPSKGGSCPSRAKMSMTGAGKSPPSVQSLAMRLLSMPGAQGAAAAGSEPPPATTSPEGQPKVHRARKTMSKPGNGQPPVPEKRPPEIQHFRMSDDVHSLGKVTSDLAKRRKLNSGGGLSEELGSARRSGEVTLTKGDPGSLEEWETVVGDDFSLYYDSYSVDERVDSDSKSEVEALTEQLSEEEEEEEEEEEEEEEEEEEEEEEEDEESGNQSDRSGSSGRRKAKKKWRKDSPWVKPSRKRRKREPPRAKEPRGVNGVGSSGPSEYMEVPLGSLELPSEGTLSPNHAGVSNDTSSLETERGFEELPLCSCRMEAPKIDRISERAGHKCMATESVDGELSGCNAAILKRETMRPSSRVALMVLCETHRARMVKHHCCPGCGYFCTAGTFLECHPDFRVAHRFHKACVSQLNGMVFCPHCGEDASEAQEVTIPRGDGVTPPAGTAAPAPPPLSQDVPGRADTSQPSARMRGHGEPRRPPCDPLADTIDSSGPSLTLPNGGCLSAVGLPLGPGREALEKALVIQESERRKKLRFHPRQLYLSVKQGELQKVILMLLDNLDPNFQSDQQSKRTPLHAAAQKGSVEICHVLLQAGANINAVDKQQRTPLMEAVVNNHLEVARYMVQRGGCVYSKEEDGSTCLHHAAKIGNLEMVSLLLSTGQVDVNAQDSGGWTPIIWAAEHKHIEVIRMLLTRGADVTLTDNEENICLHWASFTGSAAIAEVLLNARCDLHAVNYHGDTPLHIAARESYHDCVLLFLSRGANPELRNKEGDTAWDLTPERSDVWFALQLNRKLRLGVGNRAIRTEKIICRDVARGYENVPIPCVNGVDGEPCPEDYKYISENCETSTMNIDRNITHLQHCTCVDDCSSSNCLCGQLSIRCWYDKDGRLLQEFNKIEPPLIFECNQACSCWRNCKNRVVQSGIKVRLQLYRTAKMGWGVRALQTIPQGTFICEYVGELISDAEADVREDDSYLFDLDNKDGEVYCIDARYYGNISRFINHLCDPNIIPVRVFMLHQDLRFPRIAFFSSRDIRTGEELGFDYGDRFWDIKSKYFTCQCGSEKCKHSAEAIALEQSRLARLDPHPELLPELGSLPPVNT
Experiment: qHTS Assay for Inhibitors of Histone Lysine Methyltransferase G9a; further: nearly all actives have a fitted effect of over 75% in size
Conditions: G9a H3K9 monomethylation, AlphaScreen, 2 h; activity, negative = inhibition: at 59 µM (top of the series) unless noted
Method in brief: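 Quantitative HTS format: methyltransferase activity on a biotin-tagged H3K9 peptide is measured by AlphaScreen, using a rabbit anti-monomethyl-H3K9 antibody with streptavidin donor and anti-IgG acceptor beads. Final levels are 20 nM enzyme, 500 nM peptide, 20 uM SAM; 2 h RT.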
On the % scale 0 is the no-effect control and ±100 the full control effect; potency means the concentration at half of the fitted maximal effect; tags describe the fitted curve by direction and shape.

Row | Structure (SMILES) | Potency | activity, negative = inhibition
1 | CCOC(=O)c1[nH]c(C)c(CCC(=O)N2CCN(c3ccc(Cl)cc3)CC2)c1C | inconclusive: 39.8 µM [inhibitor, single point] | –
2 | CCCc1noc2c1C(c1ccoc1)C(C#N)=C(N)N2 (configuration not stated) | inconclusive: 56.2 µM [inhibitor, partial curve, poor fit] | –
3 | Cc1ccccc1C(=O)NC(CC(C)C)C(=O)N1CCN(c2ccccc2)CC1 (configuration not stated) | – | inactive: 4.69% [at 102 µM]
4 | CCOc1ccc2oc(C(=O)N(C)CC(=O)Nc3ccc(OCC)c(OCC)c3)c(C)c2c1 | active: 56.2 µM | –
5 | Cc1ccc(-c2cc(C(=O)OCC(=O)N(C)C3CCS(=O)(=O)C3)c3ccccc3n2)o1 (configuration not stated) | active: 3.98 µM | –
6 | COC(=O)c1cc(OC)c(OC)cc1NC(=O)c1ccc2c(c1)CCN2S(C)(=O)=O | – | inactive: 1.01%
7 | Cc1cc2c(OCC(CNC(C)(C)C)OC(=O)c3ccccc3)cccc2[nH]1 (configuration not stated) | active: 15.8 µM | –
8 | CCC(C(=O)NCc1ccccc1Cl)n1c(=O)c2cccn2c2ccccc21 (configuration not stated) | – | inactive: -31.3%
9 | O=[N+]([O-])c1c(NCCCO)cc(Sc2nc3ccccc3s2)c2nonc12 | – | inconclusive: -59.1% [inhibitor] [at 0.0925 µM]
10 | Cc1ccc(NN=C2C(=O)OC(C)(C)OC2=O)c(C)c1 | – | inactive: -26.1% [at 102 µM]
11 | COc1ccc(NC(=O)COc2ccc(C(=O)OCC(=O)N(C(C)C)C(C)C)cc2OC)cc1 | – | inactive: 3.58% [at 102 µM]
12 | Cn1c(CNc2cccc(C(F)(F)F)c2)n[nH]c1=S | – | inactive: 20% [at 0.501 µM]
13 | O=C(O)c1ccccc1SC1CC(=O)N(c2ccc3c(c2)OCO3)C1=O (configuration not stated) | active: 1.58 µM | –
14 | CCc1[nH]nc2c1C1(CCN(C(=O)OCc3ccccc3)CC1)C(C#N)=C(N)O2 | inconclusive: 31.6 µM [inhibitor, single point] | –
15 | COc1ccccc1CCNC(=O)c1ccoc1C | inconclusive: 25.1 µM [inhibitor, partial curve, poor fit] | –
16 | COc1ccc(C)c2sc(N(Cc3cccnc3)C(=O)COc3ccccc3)nc12 | – | inactive: 1.37%
17 | CCN(CC)S(=O)(=O)c1ccc(C(=O)NCc2n[nH]c(=S)n2-c2ccccc2OC)cc1 | active: 3.55 µM | –
18 | CCOc1cc([N+](=O)[O-])cc(/C=N/NC(=O)c2c(-c3ccccc3)noc2C)c1O | inconclusive: 79.4 µM [inhibitor, single point] | –
19 | O=C(CN(c1ccccn1)S(=O)(=O)c1ccccc1)N/N=C/c1cccc([N+](=O)[O-])c1 | inconclusive: 89.1 µM [inhibitor, single point] | –
20 | COc1ccc(/C=C2\SC(=S)N(CC(=O)NC3CCS(=O)(=O)C3)C2=O)cc1 (configuration not stated) | – | inactive: 5.72% [at 102 µM]
21 | COC(=O)c1ccccc1NC(=S)N(Cc1ccc2c(c1)OCO2)Cc1cc2ccc(OC)cc2[nH]c1=O | active: 0.282 µM | –
22 | Cc1ccc(C)c(N2CCN(C(=O)c3cc(S(=O)(=O)N4CCCC4)c[nH]3)CC2)c1 | – | inactive: -9.35%
23 | O=C(CSc1nnc(CN2CCOCC2)n1-c1ccccc1)Nc1ccc(Cl)cc1 | inconclusive: 31.6 µM [inhibitor, single point] | –
24 | CCn1c(SCC(=O)NCc2ccccc2)nnc1-c1ccccc1O | – | inconclusive: -73% [inhibitor]
25 | O=c1cc(CO)oc(C(Nc2ccccn2)c2cccc(F)c2)c1O (configuration not stated) | active: 1.26 µM | –
26 | COc1cc(/C=N/N=C(/C(=O)c2ccccc2)c2ccccc2)cc(OC)c1O | inconclusive: 39.8 µM [inhibitor, single point] | –

Row | Structure (SMILES) | Potency | activity, negative = inhibition
27 | CN1CCN(c2ccc(NC(=O)c3ccc(Cl)cc3)cn2)CC1 | inconclusive: 50.1 µM [inhibitor, partial curve, poor fit] | –
28 | O=C(COC(=O)C1CC2CCCC(C1)C2=O)c1cccc(Br)c1 (configuration not stated) | inconclusive: 7.08 µM [inhibitor, single point] | –
29 | Cc1oc2c(c(C)cc3oc(=O)c(CC(=O)N[C@@H](CC(C)C)C(=O)O)c(C)c32)c1C | inconclusive: 79.4 µM [inhibitor, partial curve, poor fit] | –
30 | COc1cc(OC)cc(C(=O)NCc2ccc3c(c2)CCN3C(=O)c2ccccc2)c1 | – | inactive: 1.98%
31 | CCn1c(SCC(=O)O)nc2sc3c(c2c1=O)CCC3 | active: 44.7 µM | –
32 | O=C(O)CCCC(=O)Nc1ccc(N=Nc2ccccc2)cc1 | – | inactive: -29.1% [at 102 µM]
33 | CC1CCCCN1CC(=O)Nc1ccccc1Sc1ccccc1 (configuration not stated) | – | inactive: 36.6%
34 | Cc1ccc(N=C2SC(C(=O)Nc3ccc(OC(F)(F)F)cc3)C(N)=C2C(=O)Nc2c(C)cc(C)cc2C)cc1 (configuration not stated) | inconclusive: 25.1 µM [inhibitor, single point] | –
35 | CCOc1ccc(C(=O)NCC(=O)OCc2ccc(F)cc2Cl)cc1 | – | inactive: 3.85%
36 | CN=c1scc(-c2cccs2)n1/N=C/c1ccccc1O | – | inactive: 7.21%
37 | CC(=O)N1CCCc2cc(S(=O)(=O)NCc3ccc(N(C)C)cc3)ccc21 | inconclusive: 35.5 µM [inhibitor, partial curve, poor fit] | –
38 | O=C(CSc1ccccn1)c1ccc2c(c1)OCO2 | inconclusive: 35.5 µM [inhibitor, partial curve, poor fit] | –
39 | COc1ccc(NC(=O)c2ccc3c(SCC(=O)O)c4c(nc3c2)CCCC4)cc1Cl | inconclusive: 50.1 µM [inhibitor, partial curve] | –
40 | CCN1CCN(CC(=O)Nc2ccc(C)c(Br)c2)CC1 | active: 44.7 µM | –
41 | CN(CCC(=O)c1ccccc1)CCC(=O)c1ccccc1 | active: 31.6 µM | –
42 | CC1CCC(C(C)C)C2=C1C(C#N)(C#N)C(C#N)(C#N)C(c1ccccc1)N2 (configuration not stated) | active: 7.08 µM | –
43 | CNC(=S)N(Cc1ccco1)Cc1cc2cc3c(cc2[nH]c1=O)OCCO3 | active: 79.4 µM | –
44 | COc1cc(C(=O)N2CCC(c3ccncc3)CC2)cc(OC)c1OC | – | inactive: 10.3%
45 | COc1ccc(Cn2c(C(=O)O)c(CNC3CCC(C)CC3)c3ccc(C)cc32)cc1 (configuration not stated) | inconclusive: 10 µM [inhibitor, partial curve, poor fit] | –
46 | CNc1ccc(Br)cc1C(O)c1ccccc1 (configuration not stated) | – | inactive: 42.9% [at 12.7 µM]
47 | COc1ccc(CC(=O)N2CC(=O)Nc3ccc(Br)cc3C2c2ccc(F)cc2)cc1OC (configuration not stated) | – | inactive: 2.61%
48 | COc1cc2nc(NCc3ccccc3Cl)n3nc(-c4cccnc4)nc3c2cc1OC | – | inactive: 7.83%
49 | COc1ccc2oc(C(=O)N(C)CCOc3ccccc3)c(C)c2c1 | – | inactive: 61.6% [at 102 µM]
50 | O=C1CC2(CCN(C(=O)c3c(F)cccc3Cl)CC2)Oc2ccccc21 | – | inactive: 2.91% [at 0.501 µM]
51 | CC(=O)c1ccc(NC(=O)COC(=O)C2C3CC4OC(=O)C2C4C3)cc1 (configuration not stated) | inconclusive: 89.1 µM [inhibitor, single point] | –
52 | COc1cccc(CNC(=O)c2n[nH]c3ccccc23)c1 | – | inactive: 11.3% [at 102 µM]

Row | Structure (SMILES) | Potency | activity, negative = inhibition
53 | Cc1ccc(NC(=O)CCCNC(=O)c2ccc(Cl)cc2)cc1S(=O)(=O)N1CCOCC1 | – | inactive: -11.6%
54 | COc1cccc(C(=O)Nc2ccc3nc(SCc4ccc(C)cc4)sc3c2)c1 | – | inactive: 4.99%
55 | O=C(Cc1ccccc1[N+](=O)[O-])N1CCOCC1 | – | inactive: 23.6%
56 | CC1(C)CC(=O)C(C(c2ccc(Br)cc2)C2C(=O)CC(C)(C)CC2=O)C(=O)C1 | active: 44.7 µM | –
57 | CSc1ccc(CCNC(=O)c2sc3ncccc3c2-n2cccc2)cc1 | – | inactive: -34.4%
58 | O=C(NCC(c1cccnc1)N1CCOCC1)C(=O)Nc1cccc(Cl)c1 (configuration not stated) | – | inactive: -3.13%
59 | Cc1ccc2nc(-c3ccc(NC(=O)Cc4cccs4)cc3)[nH]c2c1 | inconclusive: 8.91 µM [inhibitor, single point] | –
60 | Cn1ccnc1C(=O)c1cccc([N+](=O)[O-])c1 | – | inactive: -6.13% [at 102 µM]
61 | O=C(COc1ccc(Cl)cc1)N/N=C/CCc1ccccc1 | inconclusive: 5.01 µM [inhibitor, single point] | –
62 | COc1ccc(NC(=O)CN2CCN(CC(=O)Nc3ccccc3OC)CC2)c(OC)c1 | inconclusive: 89.1 µM [inhibitor, single point] | –
63 | CC(/C=C/c1ccco1)=N\NC(=O)c1cccc(Cl)c1 | – | inactive: 5.48%
64 | Nc1nnc(-c2ccc(Cl)c([N+](=O)[O-])c2)s1 | active: 44.7 µM | –
65 | CCN(CC)CCNC(=O)CCCCn1c(=S)[nH]c2c([nH]c3ccc(OC)cc32)c1=O | active: 12.6 µM | –
66 | Cc1ccc(C2=CSC3=NNC4(CCCCC4)NN23)cc1 | inconclusive: 39.8 µM [inhibitor, partial curve, poor fit] | –
67 | CC1(C)CC2CC(C)(CN2C(=O)COC(=O)c2ccccc2C(F)(F)F)C1 (configuration not stated) | – | inactive: 20.6% [at 12.7 µM]
68 | Nn1c(SC/C=C/c2ccccc2)nnc1-c1ccco1 | inconclusive: 31.6 µM [inhibitor, single point] | –
69 | COCCn1c(SCC(=O)c2ccccc2)nc2c(c1=O)SC(C)C2 (configuration not stated) | inconclusive: 50.1 µM [inhibitor, partial curve] | –
70 | COc1ccc(-c2coc3cc(O)ccc3c2=O)c(O)c1O | – | inconclusive: -101% [inhibitor] [at 2.33 µM]
71 | COCCCNC(=O)C1CC(=O)N(CCc2ccc(OC)c(OC)c2)C1 (configuration not stated) | – | inactive: 34.7% [at 0.501 µM]
72 | O=C(O)c1ccc(CS(=O)(=O)c2cccc(C(F)(F)F)c2)o1 | inconclusive: 39.8 µM [inhibitor, single point] | –
73 | CCn1c(SCC(=O)N/N=C(\C)c2ccncc2)nnc1-c1ccc(C)cc1 | active: 50.1 µM | –
74 | Cc1c2cnn(CC(=O)NCCc3ccccc3)c(=O)c2c(C)n1Cc1ccccc1Cl | – | inactive: -0.763%
75 | CCc1nnc(NC(=O)CSc2nnc(-c3cccnc3)n2CC)s1 | inconclusive: 0.891 µM [inhibitor, partial curve, poor fit] | –
76 | CC1CCCN(C(=O)C(Cc2ccccc2)n2cccc2)C1 (configuration not stated) | inconclusive: 100 µM [inhibitor, single point] | –
77 | CCC(c1nnnn1CCc1ccccc1)N1CCN(c2ccc(OC)cc2)CC1 (configuration not stated) | active: 11.2 µM | –
